± gives the standard deviation of the averaged measurements. Laboratory Escherichia coli strains with one amino-acid change in an essential protein, pooled on minimal glucose agar with carbenicillin or gentamicin at twice the control MIC (plus kanamycin and chloramphenicol for the plasmids), 48 h. Fold change of barcode share against drug-free plates; higher = less susceptible. Active = above 20 in both replicates (the paper's putatively resistant). '<' = one read or none on drug, '>' = one read or none on a drug-free plate. Shares are relative, so most strains fall below 1 when a few take over. Listed are strains with at least 15 reads on both drug-free plates, and hits; most hits rest on fewer reference reads. Replicate rank correlation about 0.5. Edits are read from barcodes.

We go through 13 proteins from the supplement of paper PMC11876631.

B1: aroD L158Q (protein)
chain: MKTVTVKDLVIGTGAPKIIVSLMAKDIASVKSEALAYREADFDILEWRVDHYADLSNVESVMAAAKILRETMPEKPLLFTFRSAKEGGEQAISTEAYIALNRAAIDSGLVDMIDLELFTGDDQVKETVAYAHAHDVKVVMSNHDFHKTPEAEEIIARQRKMQSFDADIPKIALMPQSTSDVLTLLAATLEMQEQYADRPIITMSMAKTGVISRLAGEVFGSAATFGAVKKASAPGQISVNDLRTVLTILHQA
B2: aroD M203A (protein)
chain: MKTVTVKDLVIGTGAPKIIVSLMAKDIASVKSEALAYREADFDILEWRVDHYADLSNVESVMAAAKILRETMPEKPLLFTFRSAKEGGEQAISTEAYIALNRAAIDSGLVDMIDLELFTGDDQVKETVAYAHAHDVKVVMSNHDFHKTPEAEEIIARLRKMQSFDADIPKIALMPQSTSDVLTLLAATLEMQEQYADRPIITASMAKTGVISRLAGEVFGSAATFGAVKKASAPGQISVNDLRTVLTILHQA
B3: aroD L45P (protein)
chain: MKTVTVKDLVIGTGAPKIIVSLMAKDIASVKSEALAYREADFDIPEWRVDHYADLSNVESVMAAAKILRETMPEKPLLFTFRSAKEGGEQAISTEAYIALNRAAIDSGLVDMIDLELFTGDDQVKETVAYAHAHDVKVVMSNHDFHKTPEAEEIIARLRKMQSFDADIPKIALMPQSTSDVLTLLAATLEMQEQYADRPIITMSMAKTGVISRLAGEVFGSAATFGAVKKASAPGQISVNDLRTVLTILHQA
B4: aroD I168Q (protein)
chain: MKTVTVKDLVIGTGAPKIIVSLMAKDIASVKSEALAYREADFDILEWRVDHYADLSNVESVMAAAKILRETMPEKPLLFTFRSAKEGGEQAISTEAYIALNRAAIDSGLVDMIDLELFTGDDQVKETVAYAHAHDVKVVMSNHDFHKTPEAEEIIARLRKMQSFDADQPKIALMPQSTSDVLTLLAATLEMQEQYADRPIITMSMAKTGVISRLAGEVFGSAATFGAVKKASAPGQISVNDLRTVLTILHQA
B5: lpxD V201P (protein)
chain: MPSIRLADLAQQLDAELHGDGDIVITGVASMQSAQTGHITFMVNPKYREHLGLCQASAVVMTQDDLPFAKSAALVVKNPYLTYARMAQILDTTPQPAQNIAPSAVIDATAKLGNNVSIGANAVIESGVELGDNVIIGAGCFVGKNSKIGAGSRLWANVTIYHEIQIGQNCLIQSGTVVGADGFGYANDRGNWVKIPQIGRPIIGDRVEIGACTTIDRGALDDTIIGNGVIIDNQCQIAHNVVIGDNTAVAGGVIMAGSLKIGRYCMIGGASVINGHMEICDKVTVTGMGMVMRPITEPGVYSSGIPLQPNKVWRKTAALVMNIDDMSKRLKSLERKVNQQD
B6: metL F532A (protein)
chain: MSVIAQAGAKGRQLHKFGGSSLADVKCYLRVAGIMAEYSQPDDMMVVSAAGSTTNQLINWLKLSQTDRLSAHQVQQTLRRYQCDLISGLLPAEEADSLISAFVSDLERLAALLDSGINDAVYAEVVGHGEVWSARLMSAVLNQQGLPAAWLDAREFLRAERAAQPQVDEGLSYPLLQQLLVQHPGKRLVVTGFISRNNAGETVLLGRNGSDYSATQIGALAGVSRVTIWSDVAGVYSADPRKVKDACLLPLLRLDEASELARLAAPVLHARTLQPVSGSEIDLQLRCSYTPDQGSTRIERVLASGTGARIVTSHDDVCLIEFQVPASQDFKLAHKEIDQILKRAQVRPLAVGVHNDRQLLQFCYTSEVADSALKILDEAGLPGELRLRQGLALVAMVGAGVTRNPLHCHRFWQQLKGQPVEFTWQSDDGISLVAVLRTGPTESLIQGLHQSVFRAEKRIGLVLFGKGNIGSRWLELFAREQSTLSARTGFEFVLAGVVDSRRSLLSYDGLDASRALAFFNDEAVEQDEESLALWMRAHPYDDLVVLDVTASQQLADQYLDFASHGFHVISANKLAGASDSNKYRQIHDAFEKTGRHWLYNATVGAGLPINHTVRDLIDSGDTILSISGIFSGTLSWLFLQFDGSVPFTELVDQAWQQGLTEPDPRDDLSGKDVMRKLVILAREAGYNIEPDQVRVESLVPAHCEGGSIDHFFENGDELNEQMVQRLEAAREMGLVLRYVARFDANGKARVGVEAVREDHPLASLLPCDNVFAIESRWYRDNPLVIRGPGAGRDVTAGAIQSDINRLAQLL
B7: metL F532P (protein)
chain: MSVIAQAGAKGRQLHKFGGSSLADVKCYLRVAGIMAEYSQPDDMMVVSAAGSTTNQLINWLKLSQTDRLSAHQVQQTLRRYQCDLISGLLPAEEADSLISAFVSDLERLAALLDSGINDAVYAEVVGHGEVWSARLMSAVLNQQGLPAAWLDAREFLRAERAAQPQVDEGLSYPLLQQLLVQHPGKRLVVTGFISRNNAGETVLLGRNGSDYSATQIGALAGVSRVTIWSDVAGVYSADPRKVKDACLLPLLRLDEASELARLAAPVLHARTLQPVSGSEIDLQLRCSYTPDQGSTRIERVLASGTGARIVTSHDDVCLIEFQVPASQDFKLAHKEIDQILKRAQVRPLAVGVHNDRQLLQFCYTSEVADSALKILDEAGLPGELRLRQGLALVAMVGAGVTRNPLHCHRFWQQLKGQPVEFTWQSDDGISLVAVLRTGPTESLIQGLHQSVFRAEKRIGLVLFGKGNIGSRWLELFAREQSTLSARTGFEFVLAGVVDSRRSLLSYDGLDASRALAFFNDEAVEQDEESLPLWMRAHPYDDLVVLDVTASQQLADQYLDFASHGFHVISANKLAGASDSNKYRQIHDAFEKTGRHWLYNATVGAGLPINHTVRDLIDSGDTILSISGIFSGTLSWLFLQFDGSVPFTELVDQAWQQGLTEPDPRDDLSGKDVMRKLVILAREAGYNIEPDQVRVESLVPAHCEGGSIDHFFENGDELNEQMVQRLEAAREMGLVLRYVARFDANGKARVGVEAVREDHPLASLLPCDNVFAIESRWYRDNPLVIRGPGAGRDVTAGAIQSDINRLAQLL
B8: metL V545A (protein)
chain: MSVIAQAGAKGRQLHKFGGSSLADVKCYLRVAGIMAEYSQPDDMMVVSAAGSTTNQLINWLKLSQTDRLSAHQVQQTLRRYQCDLISGLLPAEEADSLISAFVSDLERLAALLDSGINDAVYAEVVGHGEVWSARLMSAVLNQQGLPAAWLDAREFLRAERAAQPQVDEGLSYPLLQQLLVQHPGKRLVVTGFISRNNAGETVLLGRNGSDYSATQIGALAGVSRVTIWSDVAGVYSADPRKVKDACLLPLLRLDEASELARLAAPVLHARTLQPVSGSEIDLQLRCSYTPDQGSTRIERVLASGTGARIVTSHDDVCLIEFQVPASQDFKLAHKEIDQILKRAQVRPLAVGVHNDRQLLQFCYTSEVADSALKILDEAGLPGELRLRQGLALVAMVGAGVTRNPLHCHRFWQQLKGQPVEFTWQSDDGISLVAVLRTGPTESLIQGLHQSVFRAEKRIGLVLFGKGNIGSRWLELFAREQSTLSARTGFEFVLAGVVDSRRSLLSYDGLDASRALAFFNDEAVEQDEESLFLWMRAHPYDDLVALDVTASQQLADQYLDFASHGFHVISANKLAGASDSNKYRQIHDAFEKTGRHWLYNATVGAGLPINHTVRDLIDSGDTILSISGIFSGTLSWLFLQFDGSVPFTELVDQAWQQGLTEPDPRDDLSGKDVMRKLVILAREAGYNIEPDQVRVESLVPAHCEGGSIDHFFENGDELNEQMVQRLEAAREMGLVLRYVARFDANGKARVGVEAVREDHPLASLLPCDNVFAIESRWYRDNPLVIRGPGAGRDVTAGAIQSDINRLAQLL
B9: lpxC L66A (protein)
chain: MIKQRTLKRIVQATGVGLHTGKKVTLTLRPAPANTGVIYRRTDLNPPVDFPADAKSVRDTMLCTCAVNEHDVRISTVEHLNAALAGLGIDNIVIEVNAPEIPIMDGSAAPFVYLLLDAGIDELNCAKKFVRIKETVRVEDGDKWAEFKPYNGFSLDFTIDFNHPAIDSSNQRYAMNFSADAFMRQISRARTFGFMRDIEYLQSRGLCLGGSFDCAIVVDDYRVLNEDGLRFEDEFVRHKMLDAIGDLFMCGHNIIGAFTAYKSGHALNNKLLQAVLAKQEAWEYVTFQDDAELPLAFKAPSAVLA
B10: lpxC L115Q (protein)
chain: MIKQRTLKRIVQATGVGLHTGKKVTLTLRPAPANTGVIYRRTDLNPPVDFPADAKSVRDTMLCTCLVNEHDVRISTVEHLNAALAGLGIDNIVIEVNAPEIPIMDGSAAPFVYLQLDAGIDELNCAKKFVRIKETVRVEDGDKWAEFKPYNGFSLDFTIDFNHPAIDSSNQRYAMNFSADAFMRQISRARTFGFMRDIEYLQSRGLCLGGSFDCAIVVDDYRVLNEDGLRFEDEFVRHKMLDAIGDLFMCGHNIIGAFTAYKSGHALNNKLLQAVLAKQEAWEYVTFQDDAELPLAFKAPSAVLA
B11: metK L186W (protein)
chain: MAKHLFTSESVSEGHPDKIADQISDAVLDAILEQDPKARVACETYVKTGMVLVGGEITTSAWVDIEEITRNTVREIGYVHSDMGFDANSCAVLSAIGKQSPDINQGVDRADPLEQGAGDQGLMFGYATNETDVLMPAPITYAHRLVQRQAEVRKNGTLPWLRPDAKSQVTFQYDDGKIVGIDAVVWSTQHSEEIDQKSLQEAVMEEIIKPILPAEWLTSATKFFINPTGRFVIGGPMGDCGLTGRKIIVDTYGGMARHGGGAFSGKDPSKVDRSAAYAARYVAKNIVAAGLADRCEIQVSYAIGVAEPTSIMVETFGTEKVPSEQLTLLVREFFDLRPYGLIQMLDLLHPIYKETAAYGHFGREHFPWEKTDKAQLLRDAAGLK
B12: metB L151A (protein)
chain: MTRKQATIAVRSGLNDDEQYGCVVPPIHLSSTYNFTGFNEPRAHDYSRRGNPTRDVVQRALAELEGGAGAVLTNTGMSAIHLVTTVFLKPGDLLVAPHDCYGGSYRLFDSLAKRGCYRVLFVDQGDEQALRAALAEKPKLVLVESPSNPLARVVDIAKICHLAREVGAVSVVDNTFLSPALQNPLALGADLVLHSCTKYLNGHSDVVAGVVIAKDPDVVTELAWWANNIGVTGGAFDSYLLLRGLRTLVPRMELAQRNAQAIVKYLQTQPLVKKLYHPSLPENQGHEIAARQQKGFGAMLSFELDGDEQTLRRFLGGLSLFTLAESLGGVESLISHAATMTHAGMAPEARAAAGISETLLRISTGIEDGEDLIADLENGFRAANKG
B13: metB L151Q (protein)
chain: MTRKQATIAVRSGLNDDEQYGCVVPPIHLSSTYNFTGFNEPRAHDYSRRGNPTRDVVQRALAELEGGAGAVLTNTGMSAIHLVTTVFLKPGDLLVAPHDCYGGSYRLFDSLAKRGCYRVLFVDQGDEQALRAALAEKPKLVLVESPSNPLQRVVDIAKICHLAREVGAVSVVDNTFLSPALQNPLALGADLVLHSCTKYLNGHSDVVAGVVIAKDPDVVTELAWWANNIGVTGGAFDSYLLLRGLRTLVPRMELAQRNAQAIVKYLQTQPLVKKLYHPSLPENQGHEIAARQQKGFGAMLSFELDGDEQTLRRFLGGLSLFTLAESLGGVESLISHAATMTHAGMAPEARAAAGISETLLRISTGIEDGEDLIADLENGFRAANKG

The series addresses Escherichia coli (laboratory strain). The experiment in a line: barcode share on antibiotic plates over drug-free plates; higher = less susceptible. Conditions: antibiotic: gentamicin; 2× MIC (MIC 0.45 µg/mL). The method, then: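 A pool of E. coli strains, each edited to carry one amino-acid change in an essential protein, was grown for 48 h on minimal glucose agar with or without antibiotic; strain barcodes were sequenced; mean of two replicates.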
Regarding B1, the “fold change of barcode share” value was below 0.0226. With B2 the figure was below 0.0162. With B3 the figure was below 0.019; with B4, below 0.0206; with B5, 0.0288 ± 0.029.

Take B6: the “fold change of barcode share” value is below 0.0196. With B7 the figure was below 0.0143; with B8, below 0.0188. Take B9: the “fold change of barcode share” value is below 0.0164.

For the protein B10, the “fold change of barcode share” value was below 0.0163. With B11 the figure was 0.0131 ± 0.0084; with B12, below 0.00919; with B13, below 0.00285.
